Measurements reported in the supplement of paper PMC3334620.
Over roughly 33,000 sequences, “E-score (-0.5 to 0.5)” has its median near -0.012; the highest 2% begin near 0.29. The list shows a part of the results.

biological target: T1, Ybr033w (UniProt P38073); test: PBM E-score (8-mer binding enrichment) (E-score (-0.5 to 0.5)); higher = stronger / more preferred TF binding; most listed sequences are background and not binding sites; conditions: protein concentration: 200 nM; construct: GST-full length
T1 sequence: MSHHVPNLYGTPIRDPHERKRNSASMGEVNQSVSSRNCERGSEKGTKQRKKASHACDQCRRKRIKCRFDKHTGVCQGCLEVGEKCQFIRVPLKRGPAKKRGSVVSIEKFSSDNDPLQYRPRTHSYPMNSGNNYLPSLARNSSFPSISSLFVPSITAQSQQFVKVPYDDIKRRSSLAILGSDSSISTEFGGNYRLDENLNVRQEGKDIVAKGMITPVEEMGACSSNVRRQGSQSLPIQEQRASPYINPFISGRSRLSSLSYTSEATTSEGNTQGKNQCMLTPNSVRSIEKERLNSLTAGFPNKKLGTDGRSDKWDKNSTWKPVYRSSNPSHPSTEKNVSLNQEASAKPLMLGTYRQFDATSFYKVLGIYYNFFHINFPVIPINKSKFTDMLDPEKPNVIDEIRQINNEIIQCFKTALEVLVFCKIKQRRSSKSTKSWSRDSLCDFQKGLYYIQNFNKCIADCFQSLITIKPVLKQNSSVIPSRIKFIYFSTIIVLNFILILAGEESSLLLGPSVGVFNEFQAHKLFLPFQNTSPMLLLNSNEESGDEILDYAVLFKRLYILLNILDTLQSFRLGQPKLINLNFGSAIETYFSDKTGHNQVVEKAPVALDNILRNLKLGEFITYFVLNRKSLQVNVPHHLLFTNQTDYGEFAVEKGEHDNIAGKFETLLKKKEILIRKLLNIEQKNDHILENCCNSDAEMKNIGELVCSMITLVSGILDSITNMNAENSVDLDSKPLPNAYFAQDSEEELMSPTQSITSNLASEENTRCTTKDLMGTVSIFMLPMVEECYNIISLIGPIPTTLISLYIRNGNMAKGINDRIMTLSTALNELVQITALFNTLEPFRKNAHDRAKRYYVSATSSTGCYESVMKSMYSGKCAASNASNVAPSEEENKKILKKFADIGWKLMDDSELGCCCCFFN
Outline: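 Universal all-10-mer Agilent arrays, double-stranded by primer extension on fresh or once-stripped slides, were probed with about 100-200 nM GST-tagged yeast transcription factors made by PURExpress. Fluorescent anti-GST detected bound protein, and masliner normalised the scans. E-scores from the Universal PBM Analysis Suite were given to each ungapped eight-base word pooled with its reverse complement.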

Sequence | PBM E-score
ATTATGGG | -0.0375
CATGACGC | -0.176
ACTTCTGC | 0.076
AAGATATA | 0.323
ATCTATCA | 0.302
CCTGTGTA | 0.112
CTGCAACA | 0.104
AGAGCAAA | 0.00797
CCAAGAGG | -0.0521
CAGGAGAG | -0.0582
AGGGTGTC | -0.186
AGAGATAC | 0.0158
GTACGTAC | -0.00634
GCAAAACA | 0.0364
GTCATTCA | 0.155
AATACTAT | 0.231
CCCTCGAC | -0.246
ACCCGTAA | 0.0246
CGCGGGGA | -0.236
CGTCGGCC | -0.0879
ATGACAAG | -0.0461
GACTTGGC | -0.1
GAGCCTTA | -0.0865
CGCATTAC | 0.0602
GCTGCACC | -0.242

Sequence | PBM E-score
GAGGCCGC | -0.219
AACTGTAA | 0.226
CCCGGAAC | -0.0597
ATCTCATA | 0.0709
AGAGCTTA | 0.0318
CTACCATC | -0.048
CGGACCCG | -0.24
CGGGCTTA | -0.139
ACCTCATC | -0.146
AAAAGAGC | -0.0295
CGTAACTA | 0.194
ATGTAGGA | -0.1
ATCGACAT | 0.0755
CGGTTTTC | 0.13
AGTATATC | 0.213
CGTTCGGC | -0.0341
GGCTACCC | -0.351
GGATCCGA | -0.013
ATTATCTA | 0.233
ACCCGGAC | -0.0659
AAAAAACA | 0.242
GTTATGCA | 0.0477
GACATGTC | -0.193
GAAGGCGA | -0.0975
ATCATACC | 0.0727

Sequence | PBM E-score
ATATACTA | 0.243
CCTGCCTA | -0.0166
AGTTGTTG | 0.123
CAGAGCGG | -0.107
CCCGTGTA | 0.0512
CCTGAGAA | 0.0675
TCAGTCGA | 0.128
AAGAAACG | 0.0616
GTCGCCTA | -0.138
AGCGAGCA | -0.0357
CCACGGAC | -0.338
CGAGCCAA | -0.135
CTCGCTCC | -0.141
AAATCAAC | 0.108
ACACCAGG | -0.00768
AATACGCA | -0.0366
ACGCGGGC | -0.131
AGGTATTC | 0.114
CAAGTCCC | -0.126
GTGGGACA | -0.189
ATGTCCAC | 0.00091
ATCCTATA | 0.137
CACTGAAA | 0.00244
GACCGTAC | -0.301
CGATAATC | 0.0636

Sequence | PBM E-score
ACGTCACC | -0.083
ACCTTCAC | -0.0347
ATATTATC | 0.265
GCAAGGGA | -0.00383
GATTACAC | 0.131
AGCGGGTG | -0.11
CATAGCCA | 0.0385
AGTCGCTA | -0.0247
CTAGGCCC | -0.332
AGCTGTGG | -0.22
CGCTGTTC | -0.199
CTGTTTGA | 0.135
GACTTCGC | -0.0815
AGTCCCTG | -0.097
CCCTAGAC | -0.16
AATGTAGG | -0.163
AGTTTTAA | 0.268
AGGCTACG | -0.266
GCGCGAAA | 0.11
ACCGAACG | -0.0975
GCTCGGAA | 0.037
CCTAAACG | 0.00042
GCTCCCTA | -0.286
GTAAAAAC | 0.198
CAAATCCC | -0.111

Sequence | PBM E-score
CATATCCA | -0.144
AACAGGCT | -0.038
CACAAGAC | -0.159
CTGTCCGA | -0.165
ATGGATCA | 0.0922
CCTGTGGC | -0.324
AAGCCTGG | -0.0832
CAGAACAC | -0.146
GCGCTAGA | -0.0551
TAACTCTA | -0.0542
TCGCTAGA | -0.0659
AAGGTTCA | 0.0886
TGGCTTAA | 0.133
AGCACAGC | 0.0732
AAGAGTAT | 0.00192
AGGCCGAC | -0.249
TTGGCCAA | -0.211
GGTACCAC | -0.111
ATTTGGCG | 0.01
AGACTCGA | -0.0387
ATAGTACC | 0.174
CTCGGCTA | -0.153
CTCTGGAC | -0.112
GCATAAGA | 0.086
AATACCAC | 0.119

Sequence | PBM E-score
ATTGCCAG | 0.0394
AAGTCAGC | -0.0231
AGCACTGC | -0.022
AAATTTTG | 0.184
AATTTCGG | 0.196
ACTGTCCT | -0.074
GCTTCTCC | -0.31
TTCGCCAA | -0.127
CTGGTACC | -0.319
ATGCGGAC | -0.244
CGTCAATA | 0.00608
CATCGGCG | -0.201
ACAGTGAC | -0.068
ACACTCTG | 0.007
ATAGCGCG | 0.0995
CCGCCACC | -0.132
ACTCTGCG | -0.162
CTAATCCA | 0.0428
CAGAACCG | -0.12
GAACTATC | 0.147
TAGCCCAA | -0.0431
GTGCACAC | -0.0293
CAACAAAC | 0.161
GACGCGAC | -0.2
GTTTTGTA | 0.0951

Sequence | PBM E-score
CTCTTGAC | -0.0753
CTCCCTTC | -0.3
AACGGGTC | -0.183
AGCAAGAT | 0.0879
TCTATTCA | 0.167
AGCGGTCA | -0.161
CATTCGGC | -0.156
GGCTGACA | 0.00838
CGTACATA | 0.201
TACTTCTA | 0.0401
AATACAGA | 0.108
ACGAGAGG | -0.025
AAGCCGAG | -0.0492
ACCCGACT | -0.0776
GCGAATCC | -0.184
GTATTACA | 0.161
CTGCGCGC | 0.0145
AACTATCA | 0.233
CGGTGCCA | -0.368
ACGGCCTA | -0.106
AAAGGTGG | 0.0832
TCCGCGCA | -0.0886
ACGATTAA | 0.141
ACTCAGAT | -0.0585
ACCTGAGC | -0.075

Sequence | PBM E-score
AGATGGCA | 0.0938
GTTCAGAA | 0.146
AATTACCG | 0.0913
AACATTCG | -0.0415
ACAGACCC | -0.161
TACCTGAA | 0.0791
AACAAGAA | 0.274
AGTGGATG | -0.127
AAAGCCCG | -0.162
CTCTAATC | 0.0958
CACGAGTC | -0.148
GACCGGAC | -0.259
CAGCGGAG | -0.26
ACCTTCGC | -0.0994
CAACAGCA | 0.155
AATCATAG | 0.219
ATATTGAA | 0.189
CAAACGAG | 0.103
CTAGTGAA | 0.101
ATCCCCAC | -0.069
ACCCAAAC | 0.138
ATGTCTTC | -0.213
CCAGGGAC | -0.282
GCTGATGA | 0.041
AGCTGCGA | -0.0753

Sequence | PBM E-score
GCCATTCA | -0.0625
ATTAAGGA | 0.177
ATTCTTTG | 0.151
ACGAAGCG | -0.261
CTTGCGCC | -0.154
CAGGTCCA | -0.149
CCGACTAC | -0.0899
ATCGACGA | 0.00669
CACCACTG | -0.0636
AGCGCCCT | -0.236
AAGAGGCC | -0.196
GTTCGTGA | -0.14
AGTACGTA | 0.166
CAAAGTGG | -0.194
GACCGACC | -0.241
GTGACCGA | -0.062
GGTAGACC | -0.153
CCACTTTC | 0.00792
AATCACCA | 0.295
